# Source: PubChem BioAssay AID662 (National Center for Advancing Translational Sciences (NCATS), 2007)
# Out of some 71,000 compounds screened, about 1,800 (2.5%) were called active. The shares of active, inactive and inconclusive entries below differ from those in the screen. The call rests on the fitted dose curve; in most records, active means well fitted activation curve with a large enough effect in the signal ratio, with a control signal flat (not every such curve was filed as active); inconclusive means small, poorly fitted or top-dose-only effect, or effect the other way, or a change in a side signal; inactive means flat fitted curve, though single readings scatter; the % refers to the signal ratio. Potencies of inconclusive entries are doubtful fits and often do not repeat.
# Test: Cell signaling CRE-BLA (Fsk stim); on activity change, negative = inhibition: % of control where 0% means no effect
# Details: CHO CRE-bla reporter (cAMP response element driving beta-lactamase), forskolin EC10, beta-lactamase ratio; activity change, negative = inhibition: at 38.2 µM (top of the series) unless noted
# Method in brief: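 AC50 values, positive or negative, reflect shifts in EC10 NKH 477-induced CRE-bla reporter activity in CHO cells. Incubation lasted 3 h at 37 °C before CCF4 substrate (2 h, room temperature) and ratiometric 460/530 nm reading.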
# Potency means the concentration at half of the fitted maximal effect; tags describe the fitted curve by direction and shape.
Structure (SMILES),"activity change, negative = inhibition",Potency
CCOC(=O)CNc1c(-c2ccc(O)cc2)nc2ccc(Cl)cn12,inconclusive: 6.16%,
c1coc(-c2nnc(SCc3cn4ccccc4n3)o2)c1,,active: 10 µM
Cc1cc(-c2ccco2)c(C#N)c2nc3ccccc3n12,,active: 7.94 µM
COc1ccc(C(=O)N2CCCC(c3nc(-c4cc(OC)c(OC)c(OC)c4)no3)C2)cc1 (centres undefined),,"inconclusive: 10 µM [rising, partial curve]"
Cc1cc(NS(=O)(=O)c2ccc(NC(=O)Cc3cccs3)cc2)no1,inactive: -7.01%,
CN(CC(=O)N1CCN(c2ccccc2)CC1)S(=O)(=O)c1cnc[nH]1,inconclusive: 5.51%,
CCCc1cc(=O)oc2cc(Oc3ncccn3)ccc12,inactive: -15.7%,
O=C(NCc1ccc2c(c1)OCO2)c1ccc(COc2cccc(Cl)c2)o1,inconclusive: -16.6%,
CCCCCCC1C(C#N)=C(N)OC2=C1C(=O)CC(C)(C)C2 (centres undefined),,active: 10 µM
O=C(c1ccco1)N1CCN(C(=O)c2ccc(Cn3cc(Br)cn3)o2)CC1,inconclusive: -11.4%,
CCCN1Cc2cccc(C(=O)NC3CCCC3)c2C1=O,,"inconclusive: 10 µM [rising, single point]"
O=c1cnc2cnc(OCc3ccccc3)nc2n1Cc1ccc(F)cc1,inconclusive: 17.5%,
O=c1c2c3c(sc2nc2sc(CN4CCOCC4)cn12)CCCC3,inactive: 7.1%,
CCc1ccccc1NS(=O)(=O)c1ccc2[nH]cc(C(=O)NCC3CCCO3)c(=O)c2c1 (centres undefined),,"inconclusive: 0.1 µM [falling, full curve]"
CCn1c(SCC(=O)c2c(N)n(C)c(=O)n(C)c2=O)nc2sc(C)c(C)c2c1=O,inactive: 27.5%,
O=C(c1csnn1)N1CCC2(CCN(Cc3ccccc3)CC2)CC1,inactive: -5.7%,
CCOC(=O)N1CCC(NS(=O)(=O)c2cc3c(cc2C)NC(=O)CO3)CC1,inactive: 14.7%,
CCCCn1c(SCC(=O)Nc2nnc(C(C)C)s2)nc2c1c(=O)n(C)c(=O)n2C,inactive: 1.86%,
COc1cc(-c2nc(-c3cccc(C)c3)no2)cc(OC)c1OC,,active: 0.794 µM
COc1cc2c(cc1OC)CN(C(=O)c1ccccc1C(=O)O)CC2,inconclusive: -26.9%,
O=C(Cn1ccc2ccccc2c1=O)NCCC(=O)N1CCN(C(=O)c2ccco2)CC1,inconclusive: -4.44%,
CCCc1cc(Nc2cccc(OC)c2)n2ncnc2n1,,"inconclusive: 10 µM [rising, partial curve]"
OC[C@H]1O[C@H](n2cnc3c(NC4CCCC4)nc(Cl)nc32)[C@@H](O)[C@@H]1O,inactive: -9.4%,
COc1ccc(OC)c(-c2cc(C(=O)N3CCCc4ccccc43)no2)c1,,active: 3.16 µM
